This is one part of the list.
Tested on: T1, C. trachomatis L2/434/Bu expressing GFP (CTL2-GFP)
T1 construct: L2/434/Bu GFP intracellular growth in HeLa cells
Set-up: species or system HeLa; C. trachomatis total inclusion area by high-content imaging, normalised to DMSO
Settings: total inclusion area; 28.5 h, 10 µM; inhibitor
Summary of the method: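 Host cell viability was gauged from Hoechst-stained nuclei counts, while chlamydial growth was taken from total inclusion area and inclusion number per well. Cells were fixed and imaged by high-content microscopy once bulk GFP and resorufin fluorescence had been measured.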

Compound | % of control remaining
O=C(NCc1nnc(-c2cccs2)o1)c1cccc(-c2ccc(F)cc2)c1 [CBK286296] | 100.192
Cc1sc(NC(=O)C2C3C=CC(C3)C2C(=O)O)c(C(N)=O)c1C (stereo not shown) [CBK263685] | 111.833
CC1(C(=O)NC(c2ccncc2)c2ccc(Cl)cc2)CCCO1 (stereo not shown) [CBK282710] | 139.368
COc1cc(Nc2nc(-c3cccc4ccccc34)cn3ccnc23)cc(OC)c1OC [CBK036608] | 63.869
Cc1cc(C[C@@H]2CCC[C@H]2NCc2cccnc2)on1 [CBK284933] | 78.9987
COC(=O)[C@H]1CN(C(=O)c2ccccn2)C[C@@H]1c1ccc(F)cc1 [CBK283727] | 59.2907
CC(C)NC(=O)Cn1c(-c2ccc(F)cc2)cc2cccnc21 [CBK284862] | 101.478
CCOc1ccc(C(C)(N)C(=O)O)cc1 (stereo not shown) [CBK261362] | 88.735
COc1ccc2nc(NC(=O)c3cccc(N4C(=O)CCC4=O)c3)sc2c1 [CBK287351] | 112.352
Cc1nc(-c2ccccc2)ccc1C(=O)Nc1nc(CC(N)=O)cs1 [CBK295195] | 93.5447
O=C(O)CCC(=O)Nc1ccc2c(c1)Cc1ccccc1-2 [CBK286611] | 106.701
O=C(COc1ccc(-c2cc(-c3ccccc3)c3cc(Cl)ccc3n2)cc1)N/N=C/c1ccc2ncccc2c1 [CBK263365] | 100.727
O=C(Nc1ccc2c(c1)OCO2)c1ccc(-c2ccccc2)nc1NCCc1ccccn1 [CBK076574] | 91.5424
COc1ccc(-c2c[nH]c([C@@H]3COCCN3Cc3ccccc3O)n2)cc1 [CBK289296] | 96.4983
CC(C)NC(=O)c1sc2ccccc2c1C1CCN(S(=O)(=O)c2ccccc2)C1 (stereo not shown) [CBK285927] | 92.2249
CC(C)(C)C1=CC2=NC3(CCCCCC3)[C@@H]3C[C@@H](O)[C@@H](O)[C@@H]3N2O1 [CBK303252] | 66.8253
O=C1c2ccccc2C(=O)N1CCCSc1nnc(-c2ccncc2)n1-c1ccccc1 [CBK263419] | 85.7672
O=C(/C=C/c1ccc(-c2ccccc2[N+](=O)[O-])o1)Nc1ccc(-c2nc3ncccc3o2)cc1 [CBK263434] | 81.4529
C=CCNCc1cc2c(C)nn(-c3ccccc3)c2[nH]c1=O [CBK282898] | 97.6781
Nc1ncnc2c1nc(N)n2[C@H]1C[C@@H](O)[C@@H](CO)O1 [CBK201222] | 77.4939
OCc1ccnc2ccccc12 [CBK001746] | 69.5328
CC[C@H]1CN(C(=O)NC(C)C)CC[C@H]1CC(=O)NCc1ccc2c(c1)OCO2 [CBK288775] | 116.82
O=C(c1cccc(F)c1)N1CCC(c2n[nH]c3ncccc23)CC1 [CBK284907] | 78.2855
CC(=O)Nc1ccc(CNC(=O)CN(C)CC2CCCCO2)cc1 (stereo not shown) [CBK306567] | 57.3603
O=C(c1ccco1)N1CCc2cc(-c3cn4c(n3)CCCC4)ccc21 [CBK282893] | 113.863
Cc1cc(O)ccc1-c1cncc(-c2ccc(O)cc2C)n1 [CBK115689] | 102.063
NC(=O)c1ccc(NC(=O)CSc2nnc(-c3ccncc3)n2-c2ccc(Br)cc2)cc1 [CBK266202] | 110.563

Compound | % of control remaining
CN(Cc1c(F)cccc1Cl)C(=O)CSc1nc(CC(=O)O)cs1 [CBK296708] | 99.8762
Cc1c(C(c2ccc(C(=O)O)cc2)c2c(C)n(C)n(-c3ccccc3)c2=O)c(=O)n(-c2ccccc2)n1C [CBK261691] | 93.2866
CC(C)c1ccc(NC(=O)CSc2nnc(CN3CCOCC3)n2C)cc1 [CBK268235] | 88.3824
CCOC(=O)CC(=O)CSc1nc2nc(C)cc(C)n2n1 [CBK268469] | 112.434
O=C(O)CCSc1nnc(-c2cccnc2)n1-c1ccccc1 [CBK268734] | 99.5513
CC(Oc1ccccc1)c1nnc(SCC(=O)Nc2ccc(Br)c(Cl)c2)n1C (stereo not shown) [CBK266299] | 105.28
COc1c(I)cc(Br)cc1/C=N/NC(=O)CC#N [CBK025764] | 87.0342
CC(=O)OC1CCN(C(=O)c2cccc(C#N)c2)CC1 [CBK304648] | 109.99
COc1ccnc(N2C[C@@H]3OCC(=O)N(Cc4ccccc4)[C@@H]3C2)n1 [CBK289666] | 89.1418
CC(C)Nc1cc(SCCc2ccccn2)ncn1 [CBK105617] | 71.5995
CCOC(=O)C1=C(CSc2nccn2C)NC(=O)NC1c1ccc2c(c1)OCO2 (stereo not shown) [CBK268746] | 85.2469
CCN(CC)CC1CCCN(C(=O)CCn2ccc3ccncc32)C1 (stereo not shown) [CBK285174] | 99.7959
Cc1cc(N2CCN(CC(=O)c3ccc(Cl)cc3)CC2)c2ccccc2n1 [CBK066868] | 110.285
COc1cncc(-c2cnc3[nH]c(=O)n(C4CCCCC4)c3n2)c1 [CBK064230] | 58.8112
Cc1ccc(NC(=O)CSc2nnc3c4c5c(sc4nc(-n4nc(C)cc4C)n23)COC(C)(C)C5)cc1 [CBK268675] | 114.585
COc1ccc(C(=O)O)cc1S(=O)(=O)Nc1c(-c2cccs2)nc2cc(C)ccn12 [CBK297484] | 89.8516
Cn1cc(CN(C(=O)c2nc(N)nc3c2CCCC3)C2CC2)cn1 [CBK307352] | 58.1563
c1cc(CCNc2nccn3ccnc23)ccn1 [CBK037976] | 132.755
CC[C@H](Cn1c(=O)oc2ccccc21)NC(=O)c1cccs1 [CBK284540] | 86.7243
O=C(Cc1ccc2c(c1)CCCO2)NCc1ccccc1-n1ccnc1 [CBK281463] | 109.203
CCC(C)NC(=O)Cn1c(C2CCNCC2)cc2cccnc21 (stereo not shown) [CBK285003] | 88.4
CN(C(=O)C12CCOCC1CN(c1nccnc1C#N)C2)C1CCCC1 (stereo not shown) [CBK304244] | 115.654
CC(C)CC(C(=O)Nc1ccc(C2CCCC2)cc1)N1CCN(C)CC1 (stereo not shown) [CBK024386C] | 68.1085
O=C(Nc1cccc2c(NC(=O)N3CCCCC3)cccc12)N1CCCCC1 [CBK010775] | 13.0421
Cc1nc2ccccn2c1-c1csc(Nc2cccc(C(=O)O)c2)n1 [CBK263303B] | 42.6972
CC(NC(=O)CS(=O)(=O)Cc1ccc(C#N)cc1)c1ccc(C#N)cc1 (stereo not shown) [CBK297791] | 83.2089
CCC(=O)Nc1ccc2oc(-c3cccc(C)c3)nc2c1 [CBK263065] | 112.794

Compound | % of control remaining
COCCCn1c(=O)[nH]c2ncc(-c3cccc(CO)c3)nc21 [CBK065104] | 108.894
CN(CCN(C)/N=C/c1cccc2ccccc12)/N=C/c1cccc2ccccc12 [CBK262153] | 99.6288
CC(N(C)S(=O)(=O)c1ccc(-n2ncc(Cl)c(Cl)c2=O)cc1)C(C)(C)C (stereo not shown) [CBK304544] | 40.7031
CC(=O)NCC(=O)N1C[C@@H]2CCCCN(Cc3cccc(F)c3)[C@@H]2C1 [CBK285515] | 96.3456
COc1ccc(-c2nn(-c3ccccc3)cc2C(=O)Nc2ccc(C(=O)O)cc2)cc1OC [CBK296112] | 137.097
COc1nccnc1-c1ccc(SC)cc1 [CBK106795] | 82.0727
Cc1ccccc1NC(=O)NC(=O)C1CCN(S(C)(=O)=O)CC1 [CBK034862] | 80.4272
c1ccc2nc(N3CCCC3)c(SCCc3cnccn3)nc2c1 [CBK103695] | 95.9339
Fc1ccccc1CN(CCCn1ccnc1)Cc1ccoc1 [CBK283024] | 103.753
COc1ccc(Cl)cc1NC(=O)CC1NC2CCCCC2NC1=O (stereo not shown) [CBK267318] | 88.9268
O=S(=O)(NCCCN1CCN(Cc2ccccc2)CC1)c1cccc(Cl)c1Cl [CBK074655] | 78.5201
Cn1ncc2c(NCC(=O)N3CCNCC3)nc(C(C)(C)C)nc21 [CBK307702] | 66.3151
NCC(=O)N(CCC1CCCC1)c1cccc2ccccc12 [CBK011922C] | 107.032
CC1CCc2c(sc3ncnc(OCC(=O)N4CCCCC4)c23)C1 (stereo not shown) [CBK304979] | 63.9394
Cc1cccc(N(CC(O)CN2C(=O)NC(C)(C)C2=O)S(=O)(=O)c2ccccc2)c1 (stereo not shown) [CBK263582] | 99.3453
Cc1csc(C(Cc2cccs2)NC(=O)C2CCOCC2)n1 (stereo not shown) [CBK285006] | 99.594
c1ccc(CNc2nnc(-c3ccccc3)s2)cc1 [CBK074928] | 43.8631
COc1ccc2c(c1)CCCN2C(=O)CCn1ccc(C)n1 [CBK282217] | 71.399
Cc1nc2c(c(=O)[nH]1)CC[C@@H]1CN(C(=O)c3cccs3)C[C@H]21 [CBK284406] | 73.6865
CC(C)N(Cc1nc(-c2ccc(Cl)cc2)no1)C(=O)COc1ccc(Br)cc1Cl [CBK267126] | 89.9288
O=C(NCc1ccccn1)c1ncoc1-c1ccc(F)cc1 [CBK282352] | 59.5068
Cn1c(SCC(=O)Nc2ccc(F)cc2)nnc1-c1cccnc1 [CBK267035] | 136.848
O=C(COc1ccccc1)Nc1cccc(N2CCNCC2)c1 [CBK028271T] | 83.1138
CCOc1cc(/C=c2/sc3nc(=O)c(Cc4ccccc4)nn3c2=O)ccc1OC(C)=O [CBK077455] | 108.096
Cc1cc(C)n(CC(C)C(=O)Nc2cccnc2)n1 (stereo not shown) [CBK307573] | 58.0649
